48 compounds from PubChem BioAssay AID1508624 (National Center for Advancing Translational Sciences (NCATS), 2021) can be followed below.

Screen size: about 48,000 compounds; about 120 (0.25%) were called active. Not shown: some 4% with an inconclusive outcome. Calls come from the whole dose curve; as a rule, active = well fitted activation curve with a large enough effect; inconclusive = small, poorly fitted or top-dose-only effect, or another doubt; inactive = no such curve, though single readings can be large or run the other way. This is a selection; strong and weak results do not stand in their true shares. The source gives no active or inactive call for entries shown without one.
Potency is the fitted concentration of half-maximal effect.

This test can be described thus: Primary qHTS for Identification of Small Molecule Activators of Huntingtin-Antisense Promoter Activity. Note: nearly all actives have a fitted effect of over 55% in size. The note with it: HEK293 HTT-AS promoter firefly luciferase reporter, 24 h; activity change, positive = activation: at 57.5 µM (top of the series), percent change from vehicle, -100% = no light. An outline of the steps:
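Quantitative HTS used concentration series of up to 57.5 uM final on HEK293 luciferase reporter cells, 24 h at 37 degrees C. Readout was Dual-Glo firefly luminescence.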
(qHTS replaces the single test concentration by a dilution series.)
On to `Cc1cccc(CNC(=O)c2cnc3sc(N4CCCCC4)nn3c2=O)c1`, for which the activity change, positive = activation is -2.95%.

As to `Cc1nc2c(-c3ccccc3)c(C)nn2c(C)c1CCC(=O)NCc1cccc(Cl)c1`, the “activity change, positive = activation” value was inactive: -21.7%.

As for `Cc1cc(C)cc(Oc2nc3c(C)cccn3c(=O)c2/C=C(\C#N)c2nc3ccccc3[nH]2)c1`, the “activity change, positive = activation” value is inactive: -3.97%.

`COc1ccc(NC(=O)c2oc3ccccc3c2NC(=O)c2cccc(F)c2)c(OC)c1`: the “activity change, positive = activation” value was inactive: -12.3%.

As to `C=CCc1ccccc1OCCSc1nc(-c2ccc(C(C)(C)C)cc2)nc2cc(=O)[nH]n12`, the activity change, positive = activation is 5.6%.

As to `CCc1nn(-c2ccccc2)c2nc(-c3cccc(OC)c3)c3cc(OC)c(OC)cc3c12`, the activity change, positive = activation was -0.363%.

For `CCCc1cc(=O)[nH]c(Nc2cccc(Cl)c2Cl)n1`, the activity change, positive = activation is -10.8%.

Consider `COc1ccc2c(C)c(CCC(=O)NCCc3ccccc3OC)c(=O)oc2c1`, for which the activity change, positive = activation is -9.52%.

With `CCOc1cc(C2C(C(=O)OC)=C(C)NC3=C2C(=O)c2ccccc23)cc(Cl)c1O` (stereo not drawn), the activity change, positive = activation is -9.14%.

Regarding `COc1ccc(NC(=O)CN(Cc2ccccc2)S(=O)(=O)c2ccc(C)cc2)cc1Cl`, the activity change, positive = activation was -40.4%.

For `COc1ccc(NC(=O)CC2C(=O)N(c3ccc(F)cc3)C(=O)N2Cc2cccnc2)cc1` (stereo not drawn), the activity change, positive = activation was found to be 5.6%.

As to `COc1ccc(CCN2C(=O)CN(C3CCCCCC3)C(=O)C2c2ccc(OC(C)C)c(OC)c2)cc1OC` (stereo not drawn), the activity change, positive = activation is -4.99%.

Consider `COc1cccc(-c2cn3ncsc3n2)c1`, for which the Potency was active: 2510 nM.

For the compound `CCCOc1ccc(C2C(=O)N(C3CCC(C)CC3)CC(=O)N2Cc2cccc(OC)c2)cc1OC` (stereo not drawn), the activity change, positive = activation is -2.32%.

As for `Cc1cc(CN2CCN(c3c(Br)cnc4nc(-c5ccc(N6CCN(C)CC6)cc5)[nH]c34)CC2)no1`, the “activity change, positive = activation” value was inactive: -19.2%.

With `COCCCNC(=O)c1ccc(-c2nc(CS(=O)(=O)c3ccc(C)cc3)c(C)o2)cc1`, the activity change, positive = activation is -29.1%.

Turning to `COc1ccc(NC(=O)CCc2c(C)nn(-c3ccc(N4CCCCC4)nn3)c2C)cc1Cl`, the activity change, positive = activation was determined as 27.8%.

Consider `Cc1ccc(CNC(=O)c2cc3c(=O)n(Cc4ccco4)ccc3nc2C)cc1`, for which the activity change, positive = activation is -26.5%.

As for `CCOc1ccc(NC(=O)CCc2c(C)nn(-c3ccc(N4CCCC4)nn3)c2C)cc1`, the activity change, positive = activation was 14.8%.

Consider `CC(=O)c1ccc(N2CCN(S(=O)(=O)c3ccc(-c4coc(C)n4)cc3)CC2)cc1`, for which the “activity change, positive = activation” value is inactive: -29.1%.

As to `CCc1nn(CC(=O)NCCc2ccc(Cl)cc2)c(=O)c2cc3c(OC)cccc3n12`, the activity change, positive = activation was -3.05%.

For the compound `COc1ccc(-c2cc(C(=O)Nc3ccc4c(c3)OCO4)no2)cc1`, the activity change, positive = activation amounted to 0.148%.

As for `COc1ccc(Br)cc1CNC(=O)Cn1nc(C)n2c(cc3cc(F)ccc32)c1=O`, the activity change, positive = activation was determined as 3.24%.

With `COc1ccc(-c2cc(C(=O)Nc3cc(C(F)(F)F)ccc3Cl)no2)cc1`, the activity change, positive = activation was -11.5%.

With `CCN(C(=O)c1ccc(C(=O)N(CC)c2ccccc2C)cc1)c1ccccc1C`, the activity change, positive = activation is -22.9%.

On to `CCOc1ccccc1CNC(=O)c1cnn(-c2ccc(C)cc2)c1-n1cccc1`, for which the activity change, positive = activation is -40.9%.

`CCc1ccc(NC(=O)CCc2c(C)nn(-c3ccc(N4CCCC4)nn3)c2C)cc1`: the activity change, positive = activation amounted to 19.4%.

With `COc1ccc(C2C(=O)N(C3CCCCCC3)CC(=O)N2CCc2ccc(Cl)cc2)cc1OC` (stereo not drawn), the activity change, positive = activation is -14.7%.

Regarding `Cc1ccc(NC2(c3ccccc3)C(=O)c3ccccc3C2=O)cc1F`, the activity change, positive = activation was -8.58%.

For the compound `Cc1ccc2c(=O)c(C(=O)c3ccccc3)cn(CC(=O)NCc3ccccc3)c2n1`, the “activity change, positive = activation” value is inactive: -12%.

As for `CCOc1ccc(C2C(=O)N(C3CCCCC3)CC(=O)N2Cc2ccc(F)cc2)cc1OC` (stereo not drawn), the activity change, positive = activation is -18.5%.

As to `COc1cc(C(=O)Nc2ccc3nc4n(c(=O)c3c2)CCCCC4)cc(OC)c1OC`, the “activity change, positive = activation” value is inactive: -11.1%.

Turning to `CCOC(=O)c1c(NC(=O)c2cc(CC)on2)sc(C)c1C`, the activity change, positive = activation came out at 5.77%.

With `COc1cc(OC)c(Nc2nc3ccc(C)cc3n3nnnc23)cc1Cl`, the activity change, positive = activation is 5.59%.

For `COC(=O)c1cc2oc3ccccc3c2n1Cc1cccc(C)c1`, the activity change, positive = activation came out at 3.1%.

Consider `COC(=O)c1cccc(NC(=O)C2CCN(S(=O)(=O)Cc3ccccc3)CC2)c1C`, for which the activity change, positive = activation is 3.46%.

For the compound `Fc1ccccc1C(NCCc1ccc(Cl)cc1)c1nnc(-c2ccccc2)o1` (stereo not drawn), the activity change, positive = activation was -26%.

For `OCCN(CCO)c1nc(N2CCCCC2)c2nc(N(CCO)CCO)nc(N3CCCCC3)c2n1`, the Potency entry is “inactive”.

For `CN(C)S(=O)(=O)N1CCC(N2CCN(Cc3ccc(F)cc3)C(=O)C2=O)CC1`, the activity change, positive = activation turned out to be 5.88%.

Turning to `Nc1nonc1-c1nc2ccccc2n1CC(=O)Nc1ccccc1C(=O)O`, the activity change, positive = activation is -29.7%.

On to `CC(=O)Nc1ccc(NCc2nnc3n2CCCCC3)cc1`, for which the “activity change, positive = activation” value is inactive: -12.5%.

With `CCc1ccc(-n2c(CCC(=O)O)ccc2-c2cccs2)cc1`, the activity change, positive = activation was -7.95%.

Regarding `COc1cccc(OCCn2c(-c3ccc(Br)cc3)nc3ccccc3c2=O)c1`, the activity change, positive = activation worked out at 2.33%.

Consider `COC(=O)c1ccc(NC(=O)CCc2c(C)nn(-c3ccc(N4CCCCC4)nn3)c2C)cc1`, for which the activity change, positive = activation is 40.4%.

Consider `Cc1ccc(CSc2nc3cccnc3n2Cc2ccc(C(=O)NC3CCCCC3)cc2)cc1`, for which the “activity change, positive = activation” value was inactive: 18.7%.

On to `Cc1nn(-c2ccc(N3CCCC3)nn2)c(C)c1CCC(=O)N1CCN(c2ccccc2F)CC1`, for which the activity change, positive = activation is -14.3%.

On to `CC1=C(C(=O)OC2CCCC2)C(c2ccccc2C(F)(F)F)CC(=O)N1` (stereo not drawn), for which the “activity change, positive = activation” value was inactive: -33%.

On to `CC(C)Oc1ccc(CNC(=O)Cn2nc(N3CCN(c4ccccc4)CC3)ccc2=O)cc1`, for which the “activity change, positive = activation” value was inactive: -28.5%.
